Reference: PubChem BioAssay AID1346428 (National Center for Advancing Translational Sciences (NCATS), 2018)
The campaign covered roughly 48,000 compounds. About 1,200 (2.5%) were called active. About 2% were inconclusive and are not listed.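 Rule for the calls: active = activation of at least 60% and not above a set upper limit (about 1 call in 100 departs from these limits); inconclusive = activation of 40% to 60%, or above that upper limit; inactive = activation under 40%.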 This is one part of the list.

Each compound was assayed against Probable G-protein coupled receptor 32 (Homo sapiens) (UniProt O75388) (assay: qHTS for Agonists of Human Resolvin D1 Receptor DRV1). Settings: CHO-K1 GPR32 beta-arrestin PathHunter luminescence, 90 min; at 76.9 µM; active compounds read high; zero percent set by DMSO-only wells.
Summary of the method: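 Agonism was scored as beta-arrestin recruitment to ProLink-fused GPR32 in stably transfected CHO-K1 cells, giving a chemiluminescent beta-Gal signal; compounds were incubated 90 min at 37 °C.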
Note: 0% is about no effect.

UniProt O75388, sequence (O75388 whole entry, looked up, the tested form may be a part): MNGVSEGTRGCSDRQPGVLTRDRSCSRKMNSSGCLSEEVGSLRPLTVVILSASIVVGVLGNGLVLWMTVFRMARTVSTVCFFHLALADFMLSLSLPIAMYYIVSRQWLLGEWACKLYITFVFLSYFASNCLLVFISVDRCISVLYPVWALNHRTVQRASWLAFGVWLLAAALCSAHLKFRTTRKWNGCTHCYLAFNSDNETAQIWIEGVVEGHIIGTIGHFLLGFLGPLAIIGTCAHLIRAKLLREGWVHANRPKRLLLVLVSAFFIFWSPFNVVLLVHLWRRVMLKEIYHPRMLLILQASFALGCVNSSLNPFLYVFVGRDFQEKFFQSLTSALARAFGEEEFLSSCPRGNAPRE

activation, inactive:
NS(=O)(=O)C#Cc1ccccc1 -1.33%
Cc1oc2ccc(O)c(CN3CCOCC3)c2c1C(=O)Nc1cccc(Cl)c1C 18.4%
Cc1ccc(NC(=O)C2CCN(c3nnc(C)c4c(C)n(-c5ccccc5)nc34)CC2)cc1Cl -10.1%
CCNC(=O)Cn1nc(C)n2c(cc3c(OC)cccc32)c1=O -4.44%
Cc1ccc(OCC(=O)OCc2cc(=O)n3nc(C4CC4)sc3n2)cc1 7.4%
Cc1cc(C)n(C(C)CC(=O)NCc2ccc(Cl)cc2)n1 (centres undefined) -10.1%
Cc1ccc(OCCCSc2nc(-c3ccc(C(C)(C)C)cc3)nc3cc(=O)[nH]n23)cc1C -21.2%
COc1ccc(NC(=O)Cn2cc(S(=O)(=O)Cc3ccc(F)cc3)c3ccccc32)cc1OC 18.5%
CCOC(=O)C1CCC(CN(Cc2cccc(Br)c2)S(=O)(=O)c2ccc(Cl)cc2)CC1 (centres undefined) -1.26%
Cc1ccc(C)c(CNC(=O)c2cc3ccccn3n2)c1 -1.46%
COc1ccc(N2CC(NC(=O)COc3ccc4ccccc4c3)CC2=O)cc1OC (centres undefined) 37.4%
CCN1C(=O)C(Cc2nc3ccccc3c(=O)n2-c2ccc(OC)cc2)c2ccccc21 (centres undefined) -13.9%
CC1Cc2cc(S(=O)(=O)NCc3ccc(N(C)C)cc3)ccc2N1C(=O)C1CCC1 (centres undefined) 10.8%
CCOC(=O)N1CCc2c(sc3c2C(=O)NC(c2ccccc2F)N3)C1 (centres undefined) -23.2%
Cc1ccc(-n2c(=O)c3c4c(sc3n(CC(=O)Nc3ccccc3C)c2=O)CCCCC4)cc1C 28.7%
COc1ccccc1CNc1nccn(-c2ccccc2)c1=O 16.8%
CCCCC1CCC(C(=O)N2CC(=O)Nc3ccc(Cl)cc3C2c2ccc(F)cc2)CC1 (centres undefined) -18.6%
CCN(CC)c1ccc(-c2nc(-c3ccco3)no2)cc1[N+](=O)[O-] -10.4%
CCC(C)NC(=O)c1sc2nc(C)c(C(=O)Nc3ccc(C)cc3C)c(-c3ccccc3Cl)c2c1N (centres undefined) -12.1%
COc1ccc(NC(=O)c2cnc(N3CCCCC3)c3ccccc23)cc1Cl -15.2%
Cc1ccc(CCNC(=O)c2ccc3c(=O)n(-c4ccccc4)c(=O)[nH]c3c2)cc1 -2.55%
Cn1cc(S(=O)(=O)N2CCCCC2)cc1C(=O)Nc1cccc(C#N)c1 1.35%
CCOC(=O)c1cccc2c1N[C@@H](c1ccc(F)cc1)[C@H]1CC=C[C@@H]21 -32.4%
Cc1ccc(CNC(=O)Cn2c(=O)n(Cc3ccc(F)cc3)c(=O)c3sc4ccccc4c32)cc1 -1.64%
O=C(CCCCC(=O)Nc1c(I)cc(I)c(C(=O)O)c1I)Nc1c(I)cc(I)c(C(=O)O)c1I -2.49%
O=C(Nc1ccc(Cl)cc1)N1CCC(c2ccccc2)C1 (centres undefined) 2.09%
Cc1cc(-c2ccc(S(=O)(=O)Nc3ccc(Cl)cc3C)cc2)on1 5.68%
COc1cccc(N2CC(NC(=O)/C=C\c3ccc(OC)c(OC)c3)CC2=O)c1 (centres undefined) 3.42%
CCOc1ccccc1NC(=O)c1c(NCc2sccc2C)sc2c1CCC(C)C2 (centres undefined) -17.6%
CCC(C)NC(=O)CN1C(=O)COc2ccc(S(=O)(=O)N3CCOCC3)cc21 (centres undefined) 0.0422%
CCCN(C(=O)Cn1ncc2c([nH]c3ccc(C)cc32)c1=O)c1ccccc1C 1.53%
Cc1nc2scc(C)n2c(=O)c1S(=O)(=O)Nc1cccc(C(F)(F)F)c1 49.4%
CCOc1ccc(-n2nc3ccc(NC(=O)c4ccc(-c5cccc(Cl)c5)o4)cc3n2)cc1 -4.86%
CN1CCc2nc3sc(C(=O)Nc4ccccc4C(F)(F)F)c(N)c3cc2C1 -25.4%
COc1ccccc1Cc1nc2ccccc2nc1SCC(=O)NCc1ccccc1Cl -11.2%
CC1=C(C(=O)OC2CCCCCC2)C(c2cccc(Cl)c2)CC(=O)N1 (centres undefined) 42.6%
CCCC1=Nc2cc(C(=O)N3CCC(C)CC3)ccc2Sc2ccc(C)cc21 1.18%
Cc1ccc2c(=O)c(C(=O)c3cccc(Cl)c3)cn(CC(=O)Nc3ccccc3C(F)(F)F)c2n1 -10.7%
COc1ccccc1C(=O)OCc1cc(=O)n2nc(C(C)C)sc2n1 0%
CC1=Nc2cc(C(=O)NCCc3ccc(Cl)cc3)ccc2Sc2c(C)ccc(C)c21 -15%
COc1ccc(-c2noc(-c3ccc(NCC4CCCO4)c([N+](=O)[O-])c3)n2)cc1OC (centres undefined) 30.9%
COc1ccccc1CNC(=O)c1oc2ccc3c(c2c1C)C(=O)CC(C)(C)O3 -26.5%
CC(=O)Nc1ccc(NC(=O)CCS(=O)(=O)c2ccc3c(c2)CC(=O)N3C)cc1 0%
CCOC(=O)CC(=O)CSc1nc2ccccc2c(=O)n1CCc1ccc(S(N)(=O)=O)cc1 -5.11%
CC1CCCCN1CCCNC(=O)c1cc(Sc2ccc(Cl)cc2)nc2ccccc12 (centres undefined) -21.5%
O=S(=O)(c1ccc(-c2cnc(C3CC3)o2)cc1)N1CCN(c2cccc(Cl)c2)CC1 -1.75%
Cc1cccc(S(=O)Cc2ccc(C(=O)NC3CCCCCC3)o2)c1 (centres undefined) -15.1%
CCOc1ccccc1C(=O)Nc1cc(-c2ccc(C)cc2)no1 -12.2%
Cc1ccc(C(=O)Nc2ccc(C(=O)OCc3cc(=O)n4c5c(sc4n3)CCCC5)cc2)cc1 -20.1%
Cc1c(-c2ccccc2)n(-c2ccccc2O)c2nc3c(c(=O)n(C)c(=O)n3C)n12 -17.1%
CCCOc1ccc(C2=NC(c3ccc(F)cc3)=Nc3ccc(OC)cc3N2)cc1 -9.13%
CC[N+](CC)(CCNC(=O)C(=O)NCC[N+](CC)(CC)Cc1ccccc1Cl)Cc1ccccc1Cl -5.91%
CCc1cccc(C)c1NC(=O)C1=C(C)C(=O)OC12CCC(C)CC2 (centres undefined) -13.6%
Cc1ccc2c(c1)c(=O)c(S(=O)(=O)c1ccc(C)c(C)c1)cn2CC(=O)Nc1ccccc1 6.47%
